Bounds are passed on as bounds.

For the first test, the target named is human CB2 receptor (hCB2) (Homo sapiens, UniProt P34972). Kind of test: cell-based. The format is cell-based.
Chain of human CB2 receptor (hCB2) (P34972 whole entry): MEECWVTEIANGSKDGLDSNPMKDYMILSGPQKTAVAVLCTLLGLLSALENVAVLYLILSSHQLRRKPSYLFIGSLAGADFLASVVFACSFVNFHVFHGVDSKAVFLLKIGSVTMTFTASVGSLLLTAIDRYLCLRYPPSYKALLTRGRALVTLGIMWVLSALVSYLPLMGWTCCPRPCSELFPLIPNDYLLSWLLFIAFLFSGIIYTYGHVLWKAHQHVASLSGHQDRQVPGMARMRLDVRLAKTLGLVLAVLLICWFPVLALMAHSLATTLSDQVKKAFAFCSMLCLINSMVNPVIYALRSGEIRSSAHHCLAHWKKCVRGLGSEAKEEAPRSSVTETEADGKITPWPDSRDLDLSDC
Settings: not given
Take `CN1CCn2c(-c3ccccc3)nc(C(=O)NCCCO)c2C1` [Compound 229, N-(3-hydroxypropyl)-7-methyl-3-phenyl-5,6,7,8-tetrahydroimidazo[1,5-a]pyrazine-1-carboxamide]: the EC50 (in general, the concentration needed to bring the measured effect to its halfway point) is over 10000 nM.

As for `CN1CCn2c(-c3ccccc3)nc(C(=O)NC3(CO)CCCC3)c2C1` [Compound 235, N-(1-(hydroxymethyl)cyclopentyl)-7-methyl-3-phenyl-5,6,7,8-tetrahydroimidazo[1,5-a]pyrazine-1-carboxamide], the EC50 is over 10000 nM.

Regarding `CNC(=O)[C@@H](NC(=O)c1nc(C2=CCN(C(=O)OC(C)(C)C)CC2)n2c1CN(C)CCC2)C(C)(C)C` [Compound 388, (S)-tert-butyl 4-(1-(3,3-dimethyl-1-(methylamino)-1-oxobutan-2-ylcarbamoyl)-8-methyl-6,7,8,9-tetrahydro-5H-imidazo[1,5-a][1,4]diazepin-3-yl)-5,6-dihydropyridine-1(2H)-carboxylate], the EC50 is over 10000 nM.

The test is the same for the next values; noted with them: agonist or inverse agonist at hCB2.
For `C[C@@H](NC(=O)c1nc(-c2ccccc2)n2c1CN(CCO)CC2)C1CCCCC1` [Compound 140, (R)-N-(1-cyclohexylethyl)-7-(2-hydroxyethyl)-3-phenyl-5,6,7,8-tetrahydroimidazo[1,5-a]pyrazine-1-carboxamide], the “+/− HCB2” value was “+”.

Take `CC(C)CCNC(=O)c1nc(-c2ccc(Cl)cc2)n2c1CN(C(=O)OC(C)(C)C)CC2` [Compound 33, tert-butyl 3-(4-chlorophenyl)-1-(isopentylcarbamoyl)-5,6-dihydroimidazo[1,5-a]pyrazine-7(8H)-carboxylate]: the “+/− HCB2” value is “−”.

Regarding `CNC(=O)[C@@H](NC(=O)c1nc(-c2ccc(OC)cc2F)n2c1CN(C)CCC2)C(C)(C)C` [Compound 358], the “+/− HCB2” value was “+”.

For `CNC(=O)[C@@H](NC(=O)c1nc(-c2cccc(Cl)c2)n2c1CN(C)CCC2)C(C)(C)C` [Compound 433, (S)-3-(3-chlorophenyl)-N-(3,3-dimethyl-1-(methylamino)-1-oxobutan-2-yl)-8-methyl-6,7,8,9-tetrahydro-5H-imidazo[1,5-a][1,4]diazepine-1-carboxamide], the “+/− HCB2” value is on record as “+”.

For the molecule `CN1CCCn2c(-c3cc(Cl)ccc3F)nc(C(=O)N[C@H](C(=O)N(C)C)C(C)(C)C)c2C1` [Compound 559, (S)-3-(5-chloro-2-fluorophenyl)-N-(1-(dimethylamino)-3,3-dimethyl-1-oxobutan-2-yl)-8-methyl-6,7,8,9-tetrahydro-5H-imidazo[1,5-a][1,4]diazepine-1-carboxamide], the “+/− HCB2” value is “+”.

As to `CNC(=O)[C@@H](NC(=O)c1nc(C(=O)c2ccccc2)n2c1CN(C)CC2)C(C)(C)C` [Compound 289, (S)-3-benzoyl-N-(3,3-dimethyl-1-(methylamino)-1-oxobutan-2-yl)-7-methyl-5,6,7,8-tetrahydroimidazo[1,5-a]pyrazine-1-carboxamide], the “+/− HCB2” value is given as “+”.

Take `CC(C)(C)CNC(=O)c1nc(-c2ccccc2)n2c1CNCC2` [Compound 24, N-neopentyl-3-phenyl-5,6,7,8-tetrahydroimidazo[1,5-a]pyrazine-1-carboxamide]: the “+/− HCB2” value was “+”.

For `CNC(=O)[C@@H](NC(=O)c1nc(-c2cnn(C)c2)n2c1CN(C)CCC2)C(C)(C)C` [Compound 447, (S)-N-(3,3-dimethyl-1-(methylamino)-1-oxobutan-2-yl)-8-methyl-3-(1-methyl-1H-pyrazol-4-yl)-6,7,8,9-tetrahydro-5H-imidazo[1,5-a][1,4]diazepine-1-carboxamide], the “+/− HCB2” value is “+”.

Staying with this test, now noted: groups >100 nM-10 μM and >10 μM; cAMP, CHO-K1 hCB2; read-out: EC50 HCB2.
Turning to `O=C(NC1CCCCC1)c1nc(-c2ccccc2)n2c1CN(C(=O)C1CC1)CC2` [Compound 136, N-cyclohexyl-7-(cyclopropanecarbonyl)-3-phenyl-5,6,7,8-tetrahydroimidazo[1,5-a]pyrazine-1-carboxamide], the EC50 was over 10000 nM.

Take `CCS(=O)(=O)N1CCn2c(-c3ccccc3)nc(C(=O)Nc3ccccc3)c2C1` [Compound 114, 7-(ethylsulfonyl)-N,3-diphenyl-5,6,7,8-tetrahydroimidazo[1,5-a]pyrazine-1-carboxamide]: the EC50 was over 10000 nM.

The record behind these values is patent US7517874B2 (priority 2007, dated 2009).
